Data on one molecule can be found in patent US20020137019A1 (NEW YORK UNIVERSITY, published 2002).

This test has as its target T1, B42-AR18-500 (rat androgen receptor N-terminus, residues 18-500, fused to the B42 activation domain) (rat, UniProt P15207 18-500).
T1 construct: range 18-500; Yeast two-hybrid bait, galactose-inducible; also called AR18-500-AD; pJG4-5:AR18-500
T1 sequence (looked up): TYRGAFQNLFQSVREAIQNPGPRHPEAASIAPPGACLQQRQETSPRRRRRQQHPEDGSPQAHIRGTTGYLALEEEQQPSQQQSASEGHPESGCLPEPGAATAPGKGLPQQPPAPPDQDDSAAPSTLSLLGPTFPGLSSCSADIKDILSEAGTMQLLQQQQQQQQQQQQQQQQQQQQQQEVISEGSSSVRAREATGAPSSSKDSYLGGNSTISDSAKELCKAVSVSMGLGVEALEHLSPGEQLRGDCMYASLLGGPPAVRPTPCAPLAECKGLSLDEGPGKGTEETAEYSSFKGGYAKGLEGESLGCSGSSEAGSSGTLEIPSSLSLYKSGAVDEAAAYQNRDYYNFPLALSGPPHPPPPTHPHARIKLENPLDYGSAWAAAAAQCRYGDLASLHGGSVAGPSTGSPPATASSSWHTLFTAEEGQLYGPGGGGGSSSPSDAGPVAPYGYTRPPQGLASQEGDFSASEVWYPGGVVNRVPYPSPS
Briefly: modified yeast two-hybrid, quantitative liquid beta-galactosidase assay. The text has this: Out of approximately one million library transformants, eight clones were isolated that interact with the androgen receptor N-terminus. There protein factors were termed ARTs, for Androgen Receptor Trapped, by the present inventors. The eight ART clones were sequenced and were subjected to a database search using the BLAST program. A quantitative liquid beta-galactosidase assay was used to measure the relative strength of interaction between the androgen receptor N-terminus and the ARTs using the yeast two-hybrid system. The levels of expression of the ARTs in yeast were similar, as determined by immunoblotting using an antibody to the LexA DNA-binding domain that is common to all of the ARTs.
ARTs expressed as fusion proteins with the LexA DNA binding domain were analyzed for their ability to interact with AR₁₈₋₅₀₀. The relative strength of interaction was determined by a quantitative liquid beta-galactosidase assay after a twelve hour incubation in galactose-containing media at 30° C. The LexA vector alone gives 1 unit of activity.

B1: ART-27 (full length, […]; LexA DNA binding domain fusion) (other)
chain: MKALTARQQEVFDLIRDHISQTGMPPTRAEIAQRLGFRSPNAAEEHLKALARKGVIEIVSGASRGIRLLQEEEEGLPLVGRVAAGEPLLAQQHIEGHYQVDPSLFKPNADFLLRVSGMSMKDIGIMDGDLLAVHKTQDVRNGQVVVARIDDEVTVKRLKKQGNKVELLPENSEFKPIVVDLRQQSFTIEGLAVGVIRNGDWL[about 150 residues left out]
notes: also called LexA-ART-27; pEG202:ART-27
As to B1, the binding result is recorded as “binds”.
